# In publication PMC12136788:
# The list shows a part of the results.
# B1: chr1:185309019:185309167:-|CDS|ENSG00000116679|unk|FALSE|unique (ssRNA)
# RNA: GGGAGUUCUACAGUCCGACGAUCGCACACAGAGCAGUGCUAGCUUGCUGCAGUCCCUAUUUAUUUGAAAUCUUUAAUAGUGAUAGUGAUCCUCAUGGAAUUUCUCACGUUAAAUUUGAUGAUCUCAAUCCAGAAGCUGUUGAACAACAGAGGAUUGAGCAUCA
# B2: chr18:9400975:9401076:+|3pUTR|ENSG00000128791|msi1|total|mutant (ssRNA)
# RNA: GGGAGUUCUACAGUCCGACGAUCUAUAAAAACCGAUAAUGCUCUUGGACACAUUUUGUAUUAUUCAUGAUCUGAACCGCCGUCCGUUAAAAGAUCAUUUGUAAUAUUAUGAUCAACUGUUAUAAAUUAAGGUCUUAAUACCUUCAACAGAGGAUUGAGCAUCA
# B3: chr17:42200006:42200107:-|3pUTR|ENSG00000173757|unk|total|mutant (ssRNA)
# RNA: GGGAGUUCUACAGUCCGACGAUCAAGCUGCCGUUUGCCUUGGCUUGGUUUCAUACACUGAUUUAUUUUUCUAUGCCAGGCAGCCGAGUCUCUCUGCCUCUGAGGAGCAGGCUACCCGCAUCCCACUCAGCCCCUCCCUACCCCCAACAGAGGAUUGAGCAUCA
# B4: chr12:50175971:50176072:-|3pUTR|ENSG00000050405|msi1|FALSE|bound_elsewhere (ssRNA)
# RNA: GGGAGUUCUACAGUCCGACGAUCCACAGUAUUCUCAGGGUGAAAUUAAACCAACUAUAGGCCUUUUUCUUGGGAUGAUUUUCUAGUCUUAAGGUUUGGGGACAUUAUAAACUUGAGUACAUUUGUUGUACACAGUUGAUAUUCCAACAGAGGAUUGAGCAUCA
# B5: chr5:141515350:141515460:-|3pUTR|ENSG00000131504|msi1_unk|total|mutant (ssRNA)
# RNA: GGGAGUUCUACAGUCCGACGAUCCUCAGCUUUCCAUCCCCAGCCCGGAAGAAAGAAUGGCACUCUUGGGCUUGGCCCAGAAUCCGAGUUAUCCGAGCAAGAGAGAGCUCCGGAAGCAUGAGGGCAACUACCGUGAGGCCUUAUCAACAGAGGAUUGAGCAUCA
# B6: chr3:48857559:48857660:-|3pUTR|ENSG00000178537|unk|FALSE|unique (ssRNA)
# RNA: GGGAGUUCUACAGUCCGACGAUCGGCUGAAGGCUGCUCAAGUUCACUUCUGGAUGCUGGAAGCUGUCGUUGAGGAGAAGGAGUAGUAAGCAGAACUAAGCAGUCUUGGAGGGCAAGGGGAGGGGAAUGGUGAGAUCCGAGCCCCAACAGAGGAUUGAGCAUCA
# B7: chr12:14501823:14501924:+|3pUTR|ENSG00000171681|unk|FALSE|unique (ssRNA)
# RNA: GGGAGUUCUACAGUCCGACGAUCUUUUGUUGUUUGCUCUUUUGCUUUAAAUAUUCUCCAAAUUACCAUUUAUGCAACAUGGUUAGGGUUAAUACUGCAUGGUAUUCAUUUAUCUUGUUUCAUGAACUUUCCAGUACUGUACAACAACAGAGGAUUGAGCAUCA
# B8: chr6:13639604:13639705:-|CDS|ENSG00000010017|unk|FALSE|unique (ssRNA)
# RNA: GGGAGUUCUACAGUCCGACGAUCGAUAGUGAAGUACGAUGUUUGGGAGGCCGAAGUCCAAAGUCUCAAGACAGUUAUCCUGUUAGUCCUCGACCUUUUAGUAGUCCAAGUAUGAGCCCCAGCCAUGGAAUGAAUAUCCACAAUCAACAGAGGAUUGAGCAUCA
# B9: chr5:149977868:149977977:+|CDS|ENSG00000155850|unk|FALSE|unique (ssRNA)
# RNA: GGGAGUUCUACAGUCCGACGAUCUAUUAAAAAGCUGCAGAAGAAUUGCCAGUGCAGUCCAGCCAAAGCCAAAAAUAUGAUUUUAGGUUUCCUUCCUGUUUUGCAGUGGCUCCCAAAAUACGACCUAAAGAAAAACAUUUUAGGCAACAGAGGAUUGAGCAUCA
# B10: chr18:3457781:3457936:+|CDS|ENSG00000177426|unk|FALSE|unique (ssRNA)
# RNA: GGGAGUUCUACAGUCCGACGAUCCAACACUCCUCCCCCUACUCCACCGGACCUCAACCAGGACUUCAGUGGAUUUCAGCUUCUAGUGGAUGUUGCACUCAAACGGGCUGCAGAGAUGGAGCUUCAGGCAAAACUUACAGCUUACAACAGAGGAUUGAGCAUCA
# B11: chr20:25297698:25297799:+|3pUTR|ENSG00000100994|msi1|FALSE|unique (ssRNA)
# RNA: GGGAGUUCUACAGUCCGACGAUCCCCAAGAGAGAGGGCAGGGAACAGGCUACUGUCCUUCCCUGUGGAAUUGCCGAGAAAUCUAGCACCUUGCAUGCUGGAUCUGGGCUGCGGGGAGGCUCUUUUUCUCCCUGGCCUCCAGUGCAACAGAGGAUUGAGCAUCA
# B12: chr3:154276180:154276282:-|CDS|ENSG00000174953|unk|total|mutant (ssRNA)
# RNA: GGGAGUUCUACAGUCCGACGAUCUCAUCCUGCCGACUGGAAUGACACUAAAUCCAGAGACUGUGCAGUACUGUCAGCUAUUACCGACUUGAUCAAAACACAGGAAAAGGCAACUCCCAGGAACUUUCCGCCACGAUUCCAGGACAACAGAGGAUUGAGCAUCA
# B13: chr11:35810521:35810622:+|3pUTR|ENSG00000166326|unk|FALSE|bound_elsewhere (ssRNA)
# RNA: GGGAGUUCUACAGUCCGACGAUCCCAGAAACCAUAAGACUCAGGCAGUUCUUGAUUCUGGAGGCCUGCCUGGUAAGAUAAGAUAGUAUAAUUUGGAACUGAGAACAUACCAGAAACAGCAGAACGAGGGCCAGAGCAGAAAAACAACAGAGGAUUGAGCAUCA
# B14: ENSG00000136451:be:win_1301|CDS|ENSG00000136451|bound_else_gene|NA|bound_elsewhere_windowed (ssRNA)
# RNA: GGGAGUUCUACAGUCCGACGAUCUUAACAUAACCAGCCCAAUGAACAUAGGGCAUCCUGUAACUAUAACCAGUCCAUUAUCCAUGACCUCUCCUUUAACACUCACUACCCCAGUCAACCUCCCCACCCCCGUCACUGCCCCAGCAACAGAGGAUUGAGCAUCA
# Molecular target: MSI1 full-length (mouse, UniProt Q61474 1-362)
# Sequence of UniProt Q61474 (Q61474 whole entry): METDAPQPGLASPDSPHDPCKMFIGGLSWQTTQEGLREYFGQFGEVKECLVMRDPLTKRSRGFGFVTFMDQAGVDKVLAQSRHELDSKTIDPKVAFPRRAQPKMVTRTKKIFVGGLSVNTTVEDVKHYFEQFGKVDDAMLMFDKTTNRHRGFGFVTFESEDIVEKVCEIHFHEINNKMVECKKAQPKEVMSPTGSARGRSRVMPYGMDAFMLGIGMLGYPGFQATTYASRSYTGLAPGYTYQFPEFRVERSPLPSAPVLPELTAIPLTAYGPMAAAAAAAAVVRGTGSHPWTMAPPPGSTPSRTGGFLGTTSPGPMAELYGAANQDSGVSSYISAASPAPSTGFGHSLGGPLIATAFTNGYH
# Assay: nsRBNS (natural sequence RNA bind-n-seq); RBNS binding buffer (assumed for nsRBNS): 25 mM Tris pH 7.5, 150 mM KCl, 3 mM MgCl2, 0.01% Triton X-100, 500 ug/ml BSA, 20 U/ml SUPERase-In, 4 C; UNK is unkempt and MSI1 is Musashi-1; names of the RNAs are library labels; protein concentration not given here; high values mean tight binding
row,Binder,binding signal
1,B1,0.669 enrichment R
2,B2,0.599 enrichment R
3,B3,0.705 enrichment R
4,B4,0.768 enrichment R
5,B5,0.337 enrichment R
6,B6,0.735 enrichment R
7,B7,0.421 enrichment R
8,B8,1.45 enrichment R
9,B9,0.174 enrichment R
10,B10,0.537 enrichment R
11,B11,0.329 enrichment R
12,B12,0.377 enrichment R
13,B13,4.44 enrichment R
14,B14,2.59 enrichment R
